Source: the supplement of paper PMC8728848
This is one part of the list.

Legend:
Experiment in all cases: glycan array binding signal (z-score within array); higher = stronger binding
Conditions in all cases: glycan notation: IUPAC condensed, linker removed
[1] = molecular target: Man(a1-2)Man(a1-3)[Man(a1-2)Man(a1-6)]Man(a1-6)[Man(a1-2)Man(a1-2)Man(a1-3)]Man
In short: (§1)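 Glycan array binding is given as a within-array Z-score, which can be read as non-binding when negative. The arrays, 3228 of them, came from the Consortium for Functional Glycomics database and were retained only where the protein sequence was available. Z-scores were averaged across arrays of the same protein sequence at different concentrations or buffers and across linkers.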

[2] = molecular target: Man(a1-2)Man(a1-3)[Man(a1-2)Man(a1-6)]Man(a1-6)[Man(a1-2)Man(a1-2)Man(a1-3)]Man(b1-4)GlcNAc(b1-4)GlcNAc
In short: as §1

[3] = molecular target: Man(a1-2)Man(a1-3)[Man(a1-6)]Man(a1-6)[Man(a1-2)Man(a1-3)]Man(b1-4)GlcNAc(b1-4)GlcNAc
In short: as §1

[4] = molecular target: Man(a1-2)Man(a1-6)[Man(a1-3)]Man(a1-6)[Man(a1-2)Man(a1-2)Man(a1-3)]Man
In short: as §1

[5] = molecular target: Man(a1-2)Man(a1-6)[Man(a1-3)]Man(a1-6)[Man(a1-2)Man(a1-2)Man(a1-3)]Man(b1-4)GlcNAc(b1-4)GlcNAc
In short: as §1

Man(a1-3)[Man(a1-6)]Man = molecular target: Man(a1-3)[Man(a1-6)]Man
In short: as §1

[6] = molecular target: Man(a1-3)[Man(a1-6)]Man(a1-6)[Man(a1-2)Man(a1-3)]Man(b1-4)GlcNAc(b1-4)GlcNAc
In short: as §1

[7] = molecular target: Man(a1-3)[Man(a1-6)]Man(a1-6)[Man(a1-3)]Man
In short: as §1

[8] = molecular target: Man(a1-3)[Man(a1-6)]Man(a1-6)[Man(a1-3)]Man(b1-4)GlcNAc(b1-4)GlcNAc
In short: as §1

[9] = molecular target: Man(a1-3)[Man(a1-6)]Man(b1-4)GlcNAc(b1-4)GlcNAc
In short: as §1

[10] = molecular target: Man(a1-3)[Man(a1-6)]Man(b1-4)GlcNAc(b1-4)[Fuc(a1-6)]GlcNAc
In short: as §1

Man(a1-6)Man = molecular target: Man(a1-6)Man
In short: as §1

Man(b1-4)GlcNAc = molecular target: Man(b1-4)GlcNAc
In short: as §1

MurNAc(b1-4)GlcNAc = molecular target: MurNAc(b1-4)GlcNAc
In short: as §1

Neu5Ac(a2-3)Gal = molecular target: Neu5Ac(a2-3)Gal
In short: as §1

[11] = molecular target: Neu5Ac(a2-3)Gal(b1-3)GalNAc
In short: as §1

[12] = molecular target: Neu5Ac(a2-3)Gal(b1-3)GalNAc(b1-3)Gal(a1-4)Gal(b1-4)Glc
In short: as §1

[13] = molecular target: Neu5Ac(a2-3)Gal(b1-3)GalNAc(b1-4)[Neu5Ac(a2-3)]Gal(b1-4)Glc
In short: as §1

[14] = molecular target: Neu5Ac(a2-3)Gal(b1-3)GalNAc(b1-4)[Neu5Ac(a2-8)Neu5Ac(a2-3)]Gal(b1-4)Glc
In short: as §1

[15] = molecular target: Neu5Ac(a2-3)Gal(b1-3)GalNAc6S
In short: as §1

[16] = molecular target: Neu5Ac(a2-3)Gal(b1-3)GlcNAc
In short: as §1

[17] = molecular target: Neu5Ac(a2-3)Gal(b1-3)GlcNAc(b1-2)Man
In short: as §1

[18] = molecular target: Neu5Ac(a2-3)Gal(b1-3)GlcNAc(b1-2)Man(a1-3)[GlcNAc(b1-4)][Neu5Ac(a2-3)Gal(b1-3)GlcNAc(b1-2)Man(a1-6)]Man(b1-4)GlcNAc(b1-4)GlcNAc
In short: as §1

[19] = molecular target: Neu5Ac(a2-3)Gal(b1-3)GlcNAc(b1-2)Man(a1-3)[Neu5Ac(a2-3)Gal(b1-3)GlcNAc(b1-2)Man(a1-6)]Man(b1-4)GlcNAc(b1-4)GlcNAc
In short: as §1

[20] = molecular target: Neu5Ac(a2-3)Gal(b1-3)GlcNAc(b1-3)Gal(b1-3)GlcNAc
In short: as §1

[21] = molecular target: Neu5Ac(a2-3)Gal(b1-3)GlcNAc(b1-3)Gal(b1-4)GlcNAc
In short: as §1

[22] = molecular target: Neu5Ac(a2-3)Gal(b1-3)GlcNAc(b1-3)GalNAc
In short: as §1

[23] = molecular target: Neu5Ac(a2-3)Gal(b1-3)GlcNAc(b1-4)Gal(b1-4)Glc
In short: as §1

[24] = molecular target: Neu5Ac(a2-3)Gal(b1-3)GlcNAc(b1-6)GalNAc
In short: as §1

[25] = molecular target: Neu5Ac(a2-3)Gal(b1-3)GlcNAc6S
In short: as §1

[26] = molecular target: Neu5Ac(a2-3)Gal(b1-3)[Fuc(a1-4)]GlcNAc
In short: as §1

[27] = molecular target: Neu5Ac(a2-3)Gal(b1-3)[Fuc(a1-4)]GlcNAc(b1-3)Gal(b1-3)[Fuc(a1-4)]GlcNAc
In short: as §1

[28] = molecular target: Neu5Ac(a2-3)Gal(b1-3)[Fuc(a1-4)]GlcNAc(b1-3)Gal(b1-4)[Fuc(a1-3)]GlcNAc
In short: as §1

[29] = molecular target: Neu5Ac(a2-3)Gal(b1-3)[GlcNAc(b1-6)]GalNAc
In short: as §1

[30] = molecular target: Neu5Ac(a2-3)Gal(b1-3)[Neu5Ac(a2-6)]GalNAc
In short: as §1

[31] = molecular target: Neu5Ac(a2-3)Gal(b1-3)[Neu5Ac(a2-6)]GlcNAc(b1-3)[Fuc(a1-3)[Gal(b1-4)]GlcNAc(b1-6)]Gal(b1-4)Glc
In short: as §1

[32] = molecular target: Neu5Ac(a2-3)Gal(b1-3)]Neu5Ac(a2-3)Gal(b1-4)]GlcNAc
In short: as §1

B1: PX14367A-bth-493-35-493 (Bacteroides thetaiotaomicron) (protein)
chain: VSSDQVAVAGNAERLFNGAWYNLFEYGTTYANIGYRALQCQDDMMASDVVSRPKYGFNSSYQFNDVAIPSDGRTSFAWYLIYKTIDNCNTAISIKGDSEELRQAQGQALALRAFCYLHLVQHYQFTYLKDKDAPCVPIYTEPTTSGTKPKGKSTVAQVYQQIFDDLNLAQDYLTNYVRKGDGQKFKPNTDVVNGLMARAYLLTGQWGEAAKAAEAARKGYSLMTTTAEYEGFNNISNKEWIWGSPQTLSQSDASYNFYYLDATYVGAYSSFMADPHLMDTFVKGDIRLPLFQWMREGYLGYKKFHMRSDDTADLVLMRSAEMYLIEAEAKVRDGVALDQAVAPLNTLRTARGVGNYDVTGKTKEQVIDEILMERRRELWGEGFGITDVLRNQKAVERMALSEDMQKTEVDCWQEGGSFAKRNPLGHWFLNFPDGKAFSANSSYYLYAIPEKEINANPNL
[1]
  glycan array binding signal (z-score): -0.145
[2]
  glycan array binding signal (z-score): -0.193
[3]
  glycan array binding signal (z-score): -0.608
[4]
  glycan array binding signal (z-score): 0.14
[5]
  glycan array binding signal (z-score): -0.419
Man(a1-3)[Man(a1-6)]Man
  glycan array binding signal (z-score): -0.744
[6]
  glycan array binding signal (z-score): -0.483
[7]
  glycan array binding signal (z-score): -0.034
[8]
  glycan array binding signal (z-score): -0.196
[9]
  glycan array binding signal (z-score): 0.166
[10]
  glycan array binding signal (z-score): -0.393
Man(a1-6)Man
  glycan array binding signal (z-score): 0.932
Man(b1-4)GlcNAc
  glycan array binding signal (z-score): -0.264
MurNAc(b1-4)GlcNAc
  glycan array binding signal (z-score): -0.441
Neu5Ac(a2-3)Gal
  glycan array binding signal (z-score): -0.216
[11]
  glycan array binding signal (z-score): -0.407
[12]
  glycan array binding signal (z-score): -0.232
[13]
  glycan array binding signal (z-score): 0.239
[14]
  glycan array binding signal (z-score): -0.448
[15]
  glycan array binding signal (z-score): -0.149
[16]
  glycan array binding signal (z-score): -0.474
[17]
  glycan array binding signal (z-score): -0.388
[18]
  glycan array binding signal (z-score): -0.15
[19]
  glycan array binding signal (z-score): 0.079
[20]
  glycan array binding signal (z-score): -0.589
[21]
  glycan array binding signal (z-score): -0.294
[22]
  glycan array binding signal (z-score): -0.042
[23]
  glycan array binding signal (z-score): -0.755
[24]
  glycan array binding signal (z-score): -0.34
[25]
  glycan array binding signal (z-score): -0.59
[26]
  glycan array binding signal (z-score): 0.065
[27]
  glycan array binding signal (z-score): 0.054
[28]
  glycan array binding signal (z-score): 0.257
[29]
  glycan array binding signal (z-score): -0.143
[30]
  glycan array binding signal (z-score): -0.079
[31]
  glycan array binding signal (z-score): -0.287
[32]
  glycan array binding signal (z-score): 0.342
